T1: RBFOX1 RRM RbFoxmut (Fox-RRM*) (Homo sapiens, UniProt Q9NWB1 109-208, R118D;E147R;N151S;E152T)
T1 sequence: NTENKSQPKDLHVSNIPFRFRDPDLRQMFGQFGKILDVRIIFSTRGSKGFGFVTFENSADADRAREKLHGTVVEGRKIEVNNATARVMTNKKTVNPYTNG

B1: CGCGUUU (DNA:RNA)
RNA: GGGAGACCGGAAUUCAGAUUGUCCCGCGUUUUUAAAUCCCGUCGUAGCCACCA
DNA 1: CAATCTGAATTCCGGTCTCCC
DNA 2: TGGTGGCTACGACGGGATT
B2: UGGGUUU (DNA:RNA)
RNA: B1 RNA with C25U, C27G
DNA 1: CAATCTGAATTCCGGTCTCCC
DNA 2: TGGTGGCTACGACGGGATT
B3: UCAGCCU (DNA:RNA)
RNA: B1 RNA with C25U, G26C, C27A, U29C, U30C
DNA 1: CAATCTGAATTCCGGTCTCCC
DNA 2: TGGTGGCTACGACGGGATT
B4: CAGGCUC (DNA:RNA)
RNA: B1 RNA with G26A, C27G, U29C, U31C
DNA 1: CAATCTGAATTCCGGTCTCCC
DNA 2: TGGTGGCTACGACGGGATT
B5: GCCCUUC (DNA:RNA)
RNA: B1 RNA with C25G, G26C, G28C, U31C
DNA 1: CAATCTGAATTCCGGTCTCCC
DNA 2: TGGTGGCTACGACGGGATT
B6: AACGUGC (DNA:RNA)
RNA: B1 RNA with C25A, G26A, U30G, U31C
DNA 1: CAATCTGAATTCCGGTCTCCC
DNA 2: TGGTGGCTACGACGGGATT
B7: CGCCGUC (DNA:RNA)
RNA: B1 RNA with G28C, U29G, U31C
DNA 1: CAATCTGAATTCCGGTCTCCC
DNA 2: TGGTGGCTACGACGGGATT
B8: AGAAGAU (DNA:RNA)
RNA: B1 RNA with C25A, C27A, G28A, U29G, U30A
DNA 1: CAATCTGAATTCCGGTCTCCC
DNA 2: TGGTGGCTACGACGGGATT
B9: AGCGUCA (DNA:RNA)
RNA: B1 RNA with C25A, U30C, U31A
DNA 1: CAATCTGAATTCCGGTCTCCC
DNA 2: TGGTGGCTACGACGGGATT
B10: CAGCAAC (DNA:RNA)
RNA: B1 RNA with G26A, C27G, G28C, U29A, U30A, U31C
DNA 1: CAATCTGAATTCCGGTCTCCC
DNA 2: TGGTGGCTACGACGGGATT
B11: UCAACUC (DNA:RNA)
RNA: B1 RNA with C25U, G26C, C27A, G28A, U29C, U31C
DNA 1: CAATCTGAATTCCGGTCTCCC
DNA 2: TGGTGGCTACGACGGGATT
B12: AGUCUGA (DNA:RNA)
RNA: B1 RNA with C25A, C27U, G28C, U30G, U31A
DNA 1: CAATCTGAATTCCGGTCTCCC
DNA 2: TGGTGGCTACGACGGGATT
B13: UCUCGCG (DNA:RNA)
RNA: GGGAGACCGGAAUUCAGAUUGUCCUCUCGCGUUAAAUCCCGUCGUAGCCACCA
DNA 1: CAATCTGAATTCCGGTCTCCC
DNA 2: TGGTGGCTACGACGGGATT
B14: AAAUCUU (DNA:RNA)
RNA: B1 RNA with C25A, G26A, C27A, G28U, U29C
DNA 1: CAATCTGAATTCCGGTCTCCC
DNA 2: TGGTGGCTACGACGGGATT
B15: UCUCUCC (DNA:RNA)
RNA: B13 RNA with G29U, G31C
DNA 1: CAATCTGAATTCCGGTCTCCC
DNA 2: TGGTGGCTACGACGGGATT
B16: GUAGAGA (DNA:RNA)
RNA: B1 RNA with C25G, G26U, C27A, U29A, U30G, U31A
DNA 1: CAATCTGAATTCCGGTCTCCC
DNA 2: TGGTGGCTACGACGGGATT
B17: ACCCCGG (DNA:RNA)
RNA: B13 RNA with U25A, U27C, G29C, C30G
DNA 1: CAATCTGAATTCCGGTCTCCC
DNA 2: TGGTGGCTACGACGGGATT
B18: UAGUGAU (DNA:RNA)
RNA: B13 RNA with C26A, U27G, C28U, C30A, G31U
DNA 1: CAATCTGAATTCCGGTCTCCC
DNA 2: TGGTGGCTACGACGGGATT
B19: CAAUAGG (DNA:RNA)
RNA: B1 RNA with G26A, C27A, G28U, U29A, U30G, U31G
DNA 1: CAATCTGAATTCCGGTCTCCC
DNA 2: TGGTGGCTACGACGGGATT
B20: CUAUUCG (DNA:RNA)
RNA: B1 RNA with G26U, C27A, G28U, U30C, U31G
DNA 1: CAATCTGAATTCCGGTCTCCC
DNA 2: TGGTGGCTACGACGGGATT
B21: AAGGGAA (DNA:RNA)
RNA: B1 RNA with C25A, G26A, C27G, U29G, U30A, U31A
DNA 1: CAATCTGAATTCCGGTCTCCC
DNA 2: TGGTGGCTACGACGGGATT
B22: UGUAAAG (DNA:RNA)
RNA: B13 RNA with C26G, C28A, G29A, C30A
DNA 1: CAATCTGAATTCCGGTCTCCC
DNA 2: TGGTGGCTACGACGGGATT
B23: CUAUCCU (DNA:RNA)
RNA: B1 RNA with G26U, C27A, G28U, U29C, U30C
DNA 1: CAATCTGAATTCCGGTCTCCC
DNA 2: TGGTGGCTACGACGGGATT
B24: UGUAAGC (DNA:RNA)
RNA: B13 RNA with C26G, C28A, G29A, C30G, G31C
DNA 1: CAATCTGAATTCCGGTCTCCC
DNA 2: TGGTGGCTACGACGGGATT
B25: UUGUCAC (DNA:RNA)
RNA: B13 RNA with C26U, U27G, C28U, G29C, C30A, G31C
DNA 1: CAATCTGAATTCCGGTCTCCC
DNA 2: TGGTGGCTACGACGGGATT
B26: GAGCCAC (DNA:RNA)
RNA: B13 RNA with U25G, C26A, U27G, G29C, C30A, G31C
DNA 1: CAATCTGAATTCCGGTCTCCC
DNA 2: TGGTGGCTACGACGGGATT
B27: CGCCAAA (DNA:RNA)
RNA: B1 RNA with G28C, U29A, U30A, U31A
DNA 1: CAATCTGAATTCCGGTCTCCC
DNA 2: TGGTGGCTACGACGGGATT
B28: ACCACCU (DNA:RNA)
RNA: B1 RNA with C25A, G26C, G28A, U29C, U30C
DNA 1: CAATCTGAATTCCGGTCTCCC
DNA 2: TGGTGGCTACGACGGGATT
B29: CAUCCCG (DNA:RNA)
RNA: B13 RNA with U25C, C26A, G29C
DNA 1: CAATCTGAATTCCGGTCTCCC
DNA 2: TGGTGGCTACGACGGGATT
B30: CUGGGUA (DNA:RNA)
RNA: B1 RNA with G26U, C27G, U29G, U31A
DNA 1: CAATCTGAATTCCGGTCTCCC
DNA 2: TGGTGGCTACGACGGGATT
B31: UUCGCGU (DNA:RNA)
RNA: B1 RNA with C25U, G26U, U29C, U30G
DNA 1: CAATCTGAATTCCGGTCTCCC
DNA 2: TGGTGGCTACGACGGGATT

Residue numbers refer to the chain shown, from its start. This is one part of the list.

The experiment has as its target T1, RBFOX1 RRM RbFoxmut (Fox-RRM*). Put plainly: EMSA; HiTS-Eq, 1 nM pool, 10 min; buffer printed only for the single-RNA assays: 10 mM Tris pH 7.5, 150 mM NaCl, 3.4 mM EDTA, 0.001% NP-40, 30 C. The following applies: tags: His6 N-terminal (pET28a); label: 5' 32P. An outline of the steps: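 Purified RbFox RRM (wild type or mutant) was equilibrated for 10 min in 50 µL with 1 nM of a 5′-radiolabelled pool of RNA with 7 randomized nucleotides, its flanks annealed to DNA oligonucleotides, across increasing protein concentrations. Free RNA was separated by 8% native PAGE, excised, reverse-transcribed, PCR-barcoded and sequenced on an Illumina HiSeq 2500. Relative association constants came from read-count changes of each variant against the control reaction, normalised to the cognate motif.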
(In general: In EMSA bound probe runs differently from free probe, usually more slowly.)
For the molecule B1, the binding signal is 0.102 KA relative to UGCAUGU.
For the molecule B2, the binding signal was 0.106 KA relative to UGCAUGU.
Take B3: the binding signal is 0.0606 KA relative to UGCAUGU.
Then B4, with 0.0788 KA relative to UGCAUGU; and B5, with 0.0457 KA relative to UGCAUGU.
Take B6: the binding signal was 0.117 KA relative to UGCAUGU.
The result for B7 reads 0.0985 KA relative to UGCAUGU; that for B8, 0.0749 KA relative to UGCAUGU; that for B9, 0.101 KA relative to UGCAUGU.
The result for B10 reads 0.0753 KA relative to UGCAUGU; that for B11, 0.0504 KA relative to UGCAUGU; that for B12, 0.0658 KA relative to UGCAUGU.
Then B13, with 0.123 KA relative to UGCAUGU; and B14, with 0.0581 KA relative to UGCAUGU.
As to B15, the binding signal is 0.0318 KA relative to UGCAUGU.
Turning to B16, the binding signal is 0.102 KA relative to UGCAUGU.
In the case of B17, the binding signal was 0.0837 KA relative to UGCAUGU.
On to B18, for which the binding signal was 0.0898 KA relative to UGCAUGU.
Then B19, with 0.0688 KA relative to UGCAUGU; and B20, with 0.085 KA relative to UGCAUGU; and B21, with 0.129 KA relative to UGCAUGU.
Turning to B22, the binding signal is 0.112 KA relative to UGCAUGU.
The result for B23 reads 0.075 KA relative to UGCAUGU; that for B24, 0.111 KA relative to UGCAUGU.
Then B25, with 0.0644 KA relative to UGCAUGU; and B26, with 0.089 KA relative to UGCAUGU; and B27, with 0.101 KA relative to UGCAUGU.
The result for B28 reads 0.126 KA relative to UGCAUGU.
Consider B29, for which the binding signal was 0.0771 KA relative to UGCAUGU.
The result for B30 reads 0.201 KA relative to UGCAUGU; that for B31, 0.135 KA relative to UGCAUGU.

For the origin of these results see article PMC9911399, “Two distinct binding modes provide the RNA-binding protein RbFox with extraordinary sequence specificity”.
